PubChem BioAssay AID1963576 (National Center for Advancing Translational Sciences (NCATS), 2024)
The campaign covered roughly 46,000 compounds. About 60 (0.1%) were called active. Another 3% or so got no clear call; they are omitted. The call rests on the fitted dose curve; in most records, active means well fitted inhibition curve with a large enough effect; inconclusive means small, poorly fitted or top-dose-only effect; inactive means no such curve, though single readings can be large or run the other way. Some of the results follow.

test: Primary qHTS assay for Inhibitors of ovarian cancer metastasis using an organotypic tumor microenvironment (TME) model.; further: nearly all actives have a fitted effect of over 65% in size;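 on activity change, negative = inhibition: plate controls were DMSO wells for no effect and tomatine positive control wells for full effect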; conditions: SKOV3ip1-GFP adhesion/invasion on 3D omental model, fluorescence; series mostly up to 45.8 µM; activity change, negative = inhibition: at the top concentration
Outline: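 qHTS, 4-pt dose (0.36-46 umol/L); SKOV3ip1-GFP, 1,200 cells/well, no FBS; primary omental fibroblast/mesothelial co-culture 48 h pre-grown; 2 h RT + 16 h 37 C; PBS wash, 4% PFA; GFP count 488/509 nm.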

SMILES | activity change, negative = inhibition | outcome
Cc1cccc(N2CCN(C(=O)c3ccc(Nc4nc5ccccc5n5nnnc45)cc3)CC2)c1C | inactive: -3.55% | –
CCN1CCN(C(=O)N[C@H](C(=O)N[C@@H]2C(=O)N3C(C(=O)O)=C(CSc4nnnn4C)CS[C@@H]23)c2ccc(O)cc2)C(=O)C1=O | – | inactive [at 15.1 µM]
CC1=C(C(=O)Nc2cc(Cl)ccc2C)C(c2cccs2)n2ncnc2N1 (stereo not drawn) | inactive: -12.1% | –
COc1ccc(NC(=O)CN2C(=O)c3cccnc3Sc3ccccc32)cc1OC | inactive: -4.84% | –
O=C(CSCc1ccc(F)cc1)N1CCc2c([nH]c3ccccc23)C1c1ccc(Cl)cc1 (stereo not drawn) | – | inactive
COc1cc(C(=O)Nc2ccccc2-c2nc(-c3ccc(C)cc3)no2)cc(OC)c1OC | – | inactive
Cc1cc(N2CCCCC2)nc2ccc(NC(=O)CCC(=O)N3CCN(c4ccccc4)CC3)cc12 | inactive: -14.3% | –
CCSc1nc(-c2ccccc2F)nc2c1Cc1c(CO)cnc(C)c1O2 | inactive: 6.14% | –
COc1ccc(CCNC(=O)C(C)n2c(=O)cc(-c3ccccc3)c3c(C)nn(C)c32)cc1OC (stereo not drawn) | inactive: 4.61% | –
COc1cc(C2C(=O)N(C3CCCCC3)CC(=O)N2C2CCCCC2)ccc1OC(C)C (stereo not drawn) | – | inactive
Cc1ccc(-c2nc3sccn3c2Nc2ccc(C)c(C)c2)cc1 | – | inactive
CCC(=O)N1CCc2cc(CNC(=O)c3ccc(F)cc3)ccc21 | inactive: 14.6% | –
COc1cccc(N2CCN(C(=O)c3nn(C)c4c3CSc3ccc(C)cc3-4)CC2)c1 | inactive: 0.252% | –
CC1CCN(c2nc3ccc(C(=O)N4CCN(c5ccccc5)CC4)cc3s2)CC1 | inactive: -5.74% | –
CCOc1ccc(N(CC)C(=O)c2cc3c(s2)-c2ccccc2OC3)cc1 | inactive: -2.6% | –
COc1ccc(OC)c(CNc2nc3ccc(C)cc3n3nnnc23)c1 | – | inactive
COC(=O)c1cc2sc(Cl)cc2n1CC(=O)Nc1cc(C)cc(C)c1 | inactive: 12.6% | –
CCOC(=O)c1cc(OC(=O)c2ccccc2Cl)n(-c2ccccc2)n1 | – | inactive
COc1ccc(OC)c(NC(=O)[C@H](CSCc2ccccc2)N2Cc3ccccc3C2=O)c1 | – | inactive
CCN(CC)CCOc1ccc(Cc2ccccc2)cc1 | inactive: -5.88% | –
O=C(NCc1ccccc1F)c1ccc(CSc2nc3cccnc3n2Cc2ccccc2)cc1 | inactive: -10.6% | –
Cc1nn2c(=O)cc(COC(=O)c3ccccc3NC(=O)COc3ccccc3C)nc2s1 | inactive: 2.81% | –
Cc1ccccc1NC(=O)Cn1c(=O)n(Cc2ccccc2)c(=O)c2c(C)c(C)sc21 | inactive: 0.796% | –
N#CC1=C2SCN(C3CCCCC3)CN2C(=O)CC1c1ccc(Cl)cc1 (stereo not drawn) | inactive: 1.93% | –

SMILES | activity change, negative = inhibition | outcome
N#Cc1nc(-c2ccc(COc3ccccc3)o2)oc1N1CCCCC1 | inactive: -4.5% | –
Cc1ccc(CNC(=O)C(=O)NCC(c2ccco2)S(=O)(=O)c2ccccc2)cc1 (stereo not drawn) | inactive: 13.1% | –
COC(=O)c1c(N)n(-c2ccc(OC)c(OC)c2)c2nc3ccccc3nc12 | inactive: -11.5% | –
Cc1ccc(CNC(=O)Cn2c(=O)n(-c3ccc(C)cc3)c(=O)c3c2c2cc(C)ccc2n3C)cc1 | – | inactive
COC(=O)c1cc2occc2n1CC(=O)Nc1ccc(N(C)C)cc1 | inactive: -10.9% | –
CCCCN1CC(c2nc3ccccc3n2CCCCOc2cccc(C)c2C)CC1=O (stereo not drawn) | inactive: -8.52% | –
CCOc1ccc(CN(CCc2ccc3c(c2)OCO3)Cc2cc(OC)c(OC)cc2OC)cc1 | – | inactive
CCOc1ccc(NC(=O)CC2C(=O)N(c3cccc(C)c3)C(=O)N2Cc2cccs2)cc1 (stereo not drawn) | inactive: -2.15% | –
CCCN1CCN(CCCNC(=O)c2ccc3nc(Cc4ccccc4)oc3c2)CC1 | inactive: -10.8% | –
COc1ccc(-c2cc3nc(C4CCN(C(=O)OC(C)(C)C)CC4)c(C(=O)Nc4cc(C)cc(C)c4)cn3n2)cc1 | inactive: 10.2% | –
CCC(Sc1nnc2c3ccccc3n(CC)c2n1)C(=O)Nc1nnc(C(C)C)s1 (stereo not drawn) | inactive: -11% | –
Cn1c(=O)cc(SCC(=O)N2CCN(c3ccccc3F)CC2)c2ccccc21 | inactive: -4.87% | –
COc1ccc2c(CNCCc3cccs3)c(C(=O)O)n(Cc3ccc(F)cc3Cl)c2c1 | inactive: -12.8% | –
Cc1cc(C)cc(NC(=O)CCCc2nc(-c3ccco3)no2)c1 | inactive: -1.01% | –
Cc1cc(-n2c(C)nc3ccccc3c2=O)ccc1NC(=O)c1ccccc1[N+](=O)[O-] | inactive: -8.61% | –
COc1ccc(C)cc1NC(=O)c1cc(S(=O)(=O)N2CCCCC2)c[nH]1 | inactive: -3.41% | –
COc1cc(NC(=O)CCc2c(C)nn(-c3ccc(N4CCCCC4)nn3)c2C)cc(OC)c1OC | inactive: 33.6% | –
Cc1ccc(N2CC(C(=O)NCCS(=O)(=O)N3CCN(c4ccc(F)cc4)CC3)CC2=O)cc1 (stereo not drawn) | – | inactive
O=C(CCSCc1cccc(F)c1)NCCc1ccccc1 | inactive: -1.12% | –
COc1ccc(CCNC(=O)c2cc(-c3ccc(C)cc3)nc3n[nH]c(-c4ccc(F)cc4)c23)cc1OC | – | inactive
Cc1ccc(-n2ncc3c(NCCc4ccccc4)ncnc32)cc1Cl | inactive: 0.939% | –
O=C(COCc1cc(-c2ccc(F)cc2)on1)Nc1cc(Cl)cc(Cl)c1 | inactive: -7.07% | –
O=C(CCSCCc1ccccn1)Nc1ccccc1C(F)(F)F | inactive: -10.7% | –
CCc1ccccc1NC(=O)Cn1cc(C(=O)c2ccncc2)c(=O)c2cc(C)ccc21 | – | inactive
